Measurements: the supplement of paper PMC12217912
Some of the results follow. The full chains were built here from the parent and the listed change. Inactive controls read about 0.05.

B1: TEV protease; numbered along this chain (parent)
chain: MGESLFKGPRDYNPISSSICHLTNESDGHTTSLYGIGFGPFIITNKHLFRRNNGTLVVQSLHGVFKVKDTTTLQQHLVDGRDMIIIRMPKDFPPFPQKLKFREPQREERICLVTTNFQTKSMSSMVSDTSCTFPSGDGIFWKHWIQTKDGQCGSPLVSTRDGFIVGIHSASNFTNTNNYFTSVPKNFMELLTNQEAQQWVSGWRLNADSVLWGGHKVFMVKPEEPFQPVKEATQL

Variants of: B1
Experiment: raw area under fraction-flipped curve 0-4 h after induction (AUC4h, not background-subtracted), DNA-recorder readout of cleavage of the substrate (dimensionless); higher = more cleavage of the substrate by the protease variant
Settings: temperature: 34 °C; time window: 0-4 h after rhamnose induction
Description: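 In vivo DNA recorder in E. coli TOP10(DE3) ΔrhaA at 34 °C. Each TEVp single-site mutant (parent TEVp 0) is paired with a single-site variant of the 7-mer TEVs (canonical ENLYFQ|S). The substrate sits between flexible linkers in a Bxb1-sfGFP-TEVs-SsrA fusion, so cleavage stabilises Bxb1 and speeds flipping of a recombination array, read by NGS. The value is the raw area under the fraction-flipped curve over 0-4 h after rhamnose induction (AUC4h), with ≥20 reads per time point. It is not background-subtracted; inactive controls average about 0.047.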
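Also: Bxb1 expression induced with 0.2% (w/v) L-rhamnose at OD600 near 0.5, cultures sampled hourly, flipped fraction per protease–substrate barcode pair counted by paired-end Illumina sequencing.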

| Variant | area with substrate ENLYFAS | area with substrate ENLYFCS | area with substrate ENLYFES | area with substrate ENLYFFS | area with substrate ENLYFHS | area with substrate ENLYFIS | area with substrate ENLYFKS | area with substrate ENLYFLS | area with substrate ENLYFMS | area with substrate ENLYFNS | area with substrate ENLYFPS | area with substrate ENLYFRS | area with substrate ENLYFSS | area with substrate ENLYFTS | area with substrate ENLYFVS | area with substrate ENLYFYS | area with substrate ENLYFDS | area with substrate ENLYFGS | area with substrate ENLYFWS |
| --- | --- | --- | --- | --- | --- | --- | --- | --- | --- | --- | --- | --- | --- | --- | --- | --- | --- | --- | --- |
| MGESLFKGPRQYNPISSSICHLTNESDGHTTSLYGIGFGPFIITNKHLFRRNNGTLVVQSLHGVFKVKDTTTLQQHLVDGRDMIIIRMPKDFPPFPQKLKFREPQREERICLVTTNFQTKSMSSMVSDTSCTFPSGDGIFWKHWIQTKDGQCGSPLVSTRDGFIVGIHSASNFTNTNNYFTSVPKNFMELLTNQEAQQWVSGWRLNADSVLWGGHKVFMVKPEEPFQPVKEATQL [D11Q] | 0.0587 | 0.0606 | 0.0503 | 0.0382 | 0.058 | 0.0584 | 0.0702 | 0.0578 | 0.0675 | 0.0709 | 0.0544 | 0.0585 | 0.052 | 0.0749 | 0.0457 | 0.0602 | – | – | – |
| MGESLFKGPRLYNPISSSICHLTNESDGHTTSLYGIGFGPFIITNKHLFRRNNGTLVVQSLHGVFKVKDTTTLQQHLVDGRDMIIIRMPKDFPPFPQKLKFREPQREERICLVTTNFQTKSMSSMVSDTSCTFPSGDGIFWKHWIQTKDGQCGSPLVSTRDGFIVGIHSASNFTNTNNYFTSVPKNFMELLTNQEAQQWVSGWRLNADSVLWGGHKVFMVKPEEPFQPVKEATQL [D11L] | 0.0586 | 0.0622 | 0.0619 | 0.0721 | 0.0581 | 0.0611 | 0.0624 | 0.0597 | 0.0583 | 0.0669 | 0.0622 | – | 0.0639 | 0.0706 | 0.0593 | 0.0595 | 0.0636 | 0.0639 | 0.0589 |
| MGESLFKGPRAYNPISSSICHLTNESDGHTTSLYGIGFGPFIITNKHLFRRNNGTLVVQSLHGVFKVKDTTTLQQHLVDGRDMIIIRMPKDFPPFPQKLKFREPQREERICLVTTNFQTKSMSSMVSDTSCTFPSGDGIFWKHWIQTKDGQCGSPLVSTRDGFIVGIHSASNFTNTNNYFTSVPKNFMELLTNQEAQQWVSGWRLNADSVLWGGHKVFMVKPEEPFQPVKEATQL [D11A] | 0.0641 | 0.0677 | 0.0969 | 0.073 | 0.0774 | 0.0608 | 0.0712 | 0.0658 | 0.0645 | 0.0547 | 0.0553 | – | 0.0608 | – | 0.0628 | 0.0561 | 0.0602 | – | 0.063 |
| MGESLFKGPRDWNPISSSICHLTNESDGHTTSLYGIGFGPFIITNKHLFRRNNGTLVVQSLHGVFKVKDTTTLQQHLVDGRDMIIIRMPKDFPPFPQKLKFREPQREERICLVTTNFQTKSMSSMVSDTSCTFPSGDGIFWKHWIQTKDGQCGSPLVSTRDGFIVGIHSASNFTNTNNYFTSVPKNFMELLTNQEAQQWVSGWRLNADSVLWGGHKVFMVKPEEPFQPVKEATQL [Y12W] | 0.0641 | 0.0552 | 0.0702 | 0.057 | 0.0604 | 0.0572 | 0.0751 | 0.0713 | 0.0711 | 0.0613 | 0.0621 | 0.063 | 0.0573 | 0.0615 | – | 0.0529 | 0.0714 | – | 0.0713 |
| MGESLFKGPRDKNPISSSICHLTNESDGHTTSLYGIGFGPFIITNKHLFRRNNGTLVVQSLHGVFKVKDTTTLQQHLVDGRDMIIIRMPKDFPPFPQKLKFREPQREERICLVTTNFQTKSMSSMVSDTSCTFPSGDGIFWKHWIQTKDGQCGSPLVSTRDGFIVGIHSASNFTNTNNYFTSVPKNFMELLTNQEAQQWVSGWRLNADSVLWGGHKVFMVKPEEPFQPVKEATQL [Y12K] | 0.0535 | 0.0645 | 0.0647 | 0.0654 | 0.0624 | 0.0488 | 0.0562 | – | 0.0663 | 0.0587 | 0.0536 | 0.0609 | 0.0571 | 0.0602 | – | 0.0597 | 0.0832 | 0.0498 | 0.0609 |
| MGESLFKGPRDHNPISSSICHLTNESDGHTTSLYGIGFGPFIITNKHLFRRNNGTLVVQSLHGVFKVKDTTTLQQHLVDGRDMIIIRMPKDFPPFPQKLKFREPQREERICLVTTNFQTKSMSSMVSDTSCTFPSGDGIFWKHWIQTKDGQCGSPLVSTRDGFIVGIHSASNFTNTNNYFTSVPKNFMELLTNQEAQQWVSGWRLNADSVLWGGHKVFMVKPEEPFQPVKEATQL [Y12H] | 0.0536 | – | 0.0652 | 0.0621 | 0.0568 | 0.0759 | 0.0583 | – | 0.0663 | 0.061 | 0.0576 | 0.0437 | 0.0484 | 0.0622 | 0.0648 | 0.0478 | 0.0614 | – | 0.0501 |
| MGESLFKGPRDSNPISSSICHLTNESDGHTTSLYGIGFGPFIITNKHLFRRNNGTLVVQSLHGVFKVKDTTTLQQHLVDGRDMIIIRMPKDFPPFPQKLKFREPQREERICLVTTNFQTKSMSSMVSDTSCTFPSGDGIFWKHWIQTKDGQCGSPLVSTRDGFIVGIHSASNFTNTNNYFTSVPKNFMELLTNQEAQQWVSGWRLNADSVLWGGHKVFMVKPEEPFQPVKEATQL [Y12S] | 0.0478 | – | 0.0645 | 0.0722 | 0.0478 | 0.0625 | – | 0.0541 | 0.0595 | – | 0.0685 | 0.0505 | 0.0656 | 0.0584 | 0.0561 | – | 0.0739 | 0.059 | 0.0468 |
| MGEMLFKGPRDYNPISSSICHLTNESDGHTTSLYGIGFGPFIITNKHLFRRNNGTLVVQSLHGVFKVKDTTTLQQHLVDGRDMIIIRMPKDFPPFPQKLKFREPQREERICLVTTNFQTKSMSSMVSDTSCTFPSGDGIFWKHWIQTKDGQCGSPLVSTRDGFIVGIHSASNFTNTNNYFTSVPKNFMELLTNQEAQQWVSGWRLNADSVLWGGHKVFMVKPEEPFQPVKEATQL [S4M] | 0.0196 | 0.0629 | 0.0611 | 0.0752 | 0.0427 | 0.0533 | 0.0548 | 0.0442 | 0.0628 | – | 0.0588 | 0.0631 | 0.0817 | 0.0664 | 0.0624 | 0.0932 | 0.0666 | 0.0766 | – |
